PubChem BioAssay AID1159614 (National Center for Advancing Translational Sciences (NCATS), 2016)
About 65 (0.1%) of roughly 45,000 compounds were called active. Calls come from the whole dose curve; as a rule, active = well fitted activation curve with a large enough effect; inconclusive = small, poorly fitted or top-dose-only effect; inactive = no such curve, though single readings can be large or run the other way. This is one part of the list.

molecular target: Galactocerebrosidase (Homo sapiens) (UniProt P54803); experiment: A Novel Cell-Based Assay to Identify Small Molecules for B -Galactocerebrosidase; conditions: 145M-Twi-hGALC-G270D cells, HMU-beta-Gal fluorescence, 48 h; series mostly up to 57.5 µM; activation: at the top concentration; note: 0% is about no effect; nearly all actives have a fitted effect of over 65% in size
How it was run: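 qHTS, 1536-well; 145M-Twi-hGALC-G270D cells (WT line also made) in DMEM/F12 + 10% FBS; compound incubation on live cells; HMU-β-gal 0.1 mM final, pH 5.2, NaTC; carbonate stop; fluorescence increase = enhanced residual activity.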

Sequence of UniProt P54803 (P54803 whole entry, looked up): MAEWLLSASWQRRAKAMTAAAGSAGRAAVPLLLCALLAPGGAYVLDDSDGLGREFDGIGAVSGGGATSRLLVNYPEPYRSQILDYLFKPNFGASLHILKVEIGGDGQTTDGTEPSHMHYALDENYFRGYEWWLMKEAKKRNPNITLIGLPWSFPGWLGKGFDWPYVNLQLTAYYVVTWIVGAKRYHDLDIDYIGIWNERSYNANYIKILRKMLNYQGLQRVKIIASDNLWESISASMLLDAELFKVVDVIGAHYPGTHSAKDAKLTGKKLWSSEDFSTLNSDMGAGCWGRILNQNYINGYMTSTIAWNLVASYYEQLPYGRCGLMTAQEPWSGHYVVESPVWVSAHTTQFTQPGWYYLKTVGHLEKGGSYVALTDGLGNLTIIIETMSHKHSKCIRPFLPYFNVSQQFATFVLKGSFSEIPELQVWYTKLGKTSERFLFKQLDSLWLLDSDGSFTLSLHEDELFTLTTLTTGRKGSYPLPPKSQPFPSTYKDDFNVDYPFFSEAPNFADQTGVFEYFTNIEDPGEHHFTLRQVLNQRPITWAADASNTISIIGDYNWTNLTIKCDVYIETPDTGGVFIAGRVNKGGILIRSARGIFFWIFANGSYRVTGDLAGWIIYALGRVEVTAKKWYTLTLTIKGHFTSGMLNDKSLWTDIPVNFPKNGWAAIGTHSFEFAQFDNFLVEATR

activation, inactive:
CCc1ccccc1NC(=O)CCCn1c(=O)c2cccn2c2ccccc21 -4.98%, CCc1cccc(-n2c(=O)c3cccnc3n2CC(=O)Nc2ccc(OC)c(Cl)c2)c1 -19.2%, COc1ccc(NC(=O)C2Cc3ccccc3CN2S(=O)(=O)c2ccccc2)cc1OC (stereo not given) -6.79%, COc1ccc(C(=O)Oc2ccc(C(c3c(C)[nH][nH]c3=O)c3c(C)[nH][nH]c3=O)cc2)cc1 -11.1%, O=C1CN(C(=O)Cc2ccccc2)C(c2ccc(F)cc2)c2cc(Br)ccc2N1 (stereo not given) -27.8%, Cc1cc(S(=O)(=O)Nc2ccc3oc4c(c3c2)CCCC4)ccc1Cl -14.9%, NC(=O)NS(=O)(=O)c1ccc(Cl)cc1 -14.7%, CC(C)c1ccc(N2C(=O)N(Cc3cccc([N+](=O)[O-])c3)c3ccccc3S2(=O)=O)cc1 -13.1%, CCOc1ccc(NC(=O)[C@@H](c2ccccc2)N2Cc3ccccc3C2=O)cc1 -9.22%, COc1ccc(NS(=O)(=O)c2ccc3c(c2)[C@H]2C=CC[C@H]2[C@@H](c2ccc(C(=O)O)cc2)N3)cc1 -21.8%, Cc1noc(-c2ccc(-c3noc(-c4ccc([N+](=O)[O-])c(C)c4)n3)cc2)n1 -20.9%, Cc1ccc(S(=O)(=O)N2CCc3cc(C(=O)Nc4ccc(Cl)cc4C)ccc32)cc1 -11.4%, CCOc1ccc(CCNCc2c(C(=O)O)c(C)n(Cc3ccccc3F)c2C)cc1 -3.46%, CCCc1nn2c(=O)cc(COC(=O)c3ccc(NC(=O)COc4ccccc4F)cc3)nc2s1 -11.3%, O=S(=O)(NCCc1csc2nc(-c3ccccc3)nn12)c1ccc(Oc2ccccc2)cc1 -9.73%, COc1cc(C2C(C(=O)Nc3ccccc3C)=C(C)Nc3nc(SCc4cc(C)ccc4C)nn32)ccc1O (stereo not given) -18.5%, CCN(CC)c1ccc(NC(=O)CCc2c(C)nc3ncnn3c2C)c(C)c1 21.3%, Cc1cccn2c(=O)c(C(=O)N3CCN(c4ccc(Cl)cc4)CC3)cnc12 -3.27%, COc1ccc(Cl)cc1NC(=O)Cn1nnc2sc(-c3ccccc3)cc2c1=O -10.7%, CCOC(=O)c1cc2c(=O)n3ccccc3nc2n(Cc2ccco2)c1=NC(=O)c1cccc(Br)c1 1.32%, Cc1ccc(Cl)cc1N1CCN(C(=O)c2noc3c2CCCC3)CC1 2.97%, Cc1ccc(-n2nnnc2CNC(=O)C2CC(=O)N(c3ccccc3)C2)cc1C (stereo not given) -10.3%, CCc1cccc(C)c1NC(=O)c1cc2ccccc2o1 -34.8%, Cn1cc(S(=O)(=O)c2ccccc2)c(=O)c2cc(F)c(N3CCCC3)cc21 -16.7%, O=C(NCc1ccccc1)c1ccc(CSc2nc3cccnc3n2Cc2ccccc2)cc1 -5.87%, COc1ccc(CCNC(=O)c2cc3c(=O)n4ccccc4nc3n2C)cc1 -6.28%, CC(=O)OCC(CCn1cnc2cnc(N)nc21)COC(C)=O -8.6%, C[C@H](CN1CCCC1)C(=O)c1ccc(C(F)(F)F)cc1 -11.8%, COc1cccc(N2CCN(C(=O)c3ccc4c(Cl)c5c(nc4c3)CCCC5)CC2)c1 -36.1%, CCc1ccc(NC(=O)CSC2=Nc3ccccc3C3=NC(CC(=O)NCc4cccs4)C(=O)N23)cc1 (stereo not given) -9.94%, Cc1cc2c(cc3c(SCc4cccc(Cl)c4)nnc(C)n32)o1 -12.7%, CCC(Cn1nnc2ccccc2c1=O)NC(=O)Nc1cc(OC)cc(OC)c1 (stereo not given) -12.6%, CCC(=O)N1CCc2cc(Br)cc(S(=O)(=O)N3CCC(C(=O)Nc4cccc(C)c4)CC3)c21 -22.7%, COc1ccc(NC(=O)Cn2cc(S(=O)(=O)c3ccccc3)c(=O)c3cc(C)ccc32)cc1Cl 3.95%, Cc1cc(N2CCN(C)CC2)nc2ccc(NC(=O)c3ccccc3F)cc12 -24.7%, CC(=O)Nc1ccc(S(=O)(=O)N2CCN(c3ccc(C)c(C)c3)CC2)cc1 -8.13%, CNC(=O)c1cccc(-n2c(C)nc3cccnc32)c1C -11.2%, O=c1c2cccnc2n(Cc2ccc(Cl)cc2)c(=O)n1Cc1ccc(F)cc1 -15.7%, CCCSc1nnc(NC(=O)Cc2coc3cc(C)ccc23)s1 -10.8%, CC(=O)c1ccc(NC(=O)CSc2nc3c(=O)n(C)c(=O)n(C)c3n2C)cc1 -7.19%, Cc1cc(OCC(=O)Nc2ccc(C(=O)OC3CCCCC3)cc2)ccc1Cl -8.9%, O=C(CSc1nnc2[nH]c(=O)cc(-c3ccccc3)n12)Nc1ccccc1C(F)(F)F -7.01%, Cc1cccc(NC(=O)Nc2ccc(C)c(C)c2)n1 -20%, COc1ccc(OC)c(NC(=O)C2CCN(S(=O)(=O)c3c(C)noc3/C=C/c3ccc(C)cc3)CC2)c1 -17.8%, CCC(C)n1c(=N)c(C(=O)NCc2ccco2)cc2c(=O)n3cc(C)ccc3nc21 (stereo not given) -14.4%, CC1CCCCN1CCCNC(=O)c1sc2ncccc2c1-n1cccc1 (stereo not given) -17.2%, CNC(=O)C1CCC(Cn2c(=O)c3sccc3n(CC(=O)Nc3cc(C)cc(C)c3)c2=O)CC1 (stereo not given) -7.9%, COc1cccc(NC(=O)Cn2nc(-c3ccncc3)ccc2=O)c1 -11.8%, CCOc1ccc(NC(=O)C(=O)NCCc2sc(-c3ccc(C)cc3)nc2C)cc1 -36.4%, CC(C)c1ccc(C(=O)CC2(O)C(=O)N(CCc3ccccc3)c3ccc(Cl)cc32)cc1 (stereo not given) -3.73%, O=C(c1c[nH]c2ccc(S(=O)(=O)Nc3ccccc3F)cc2c1=O)N1CCCCCC1 -5.32%, O=C(c1cnn(-c2ccc(F)cc2)c1-n1cccc1)N1CCN(c2cccc(Cl)c2)CC1 -44.1%, COc1ccc(CN2CCc3nc(N4CCN(c5ccc(F)cc5)CC4)ncc3C2)c(OC)c1OC -7.58%, CCOCCCNC(=O)C1CCN(c2nc3ccc(Cl)cc3[nH]2)CC1 -14.9%, Cc1cccc(Cn2c(CN3CCC(C(=O)NCc4ccccc4Cl)CC3)cc3ccccc32)c1 -43.6%, Cc1ccc(C(=O)Nc2cc(-c3nc4cc(Cl)ccc4o3)ccc2C)c(C)c1 -18.2%, COc1ccc(Cn2c(CNS(=O)(=O)c3ccc(Cl)s3)nc3cccnc32)cc1 -8.58%, O=S(=O)(NCc1csc(-c2ccccc2)n1)c1ccccc1 -7.59%, COC(=O)c1sc(N2C(=O)c3oc4cc(C)c(C)cc4c(=O)c3C2c2ccccc2F)nc1C (stereo not given) -3.85%, CCCN1C(=O)c2[nH]nc(-c3ccc(OC)cc3)c2C1c1ccccn1 (stereo not given) -17.1%, COc1ccc(Cl)cc1C(=O)NCC(c1ccc(N(C)C)cc1)N1CCCC1 (stereo not given) -19%, CN1CCN(c2c(F)cc3c(=O)c(C(=O)O)cn(CCF)c3c2F)CC1 -10.5%, Cc1ccc(C)c(NC(=O)Cn2c(=O)n(CCCS(=O)(=O)C3CCCCC3)c(=O)c3ccccc32)c1 2.76%, Cc1ccc(NC(=O)C2CCCN(S(=O)(=O)c3ccc4c(c3)CCCC(=O)N4)C2)cc1N(C)C (stereo not given) -6.13%, O=C(Cn1c(-c2cccs2)cc2cc(Cl)ccc21)N1CCCCC1 -3.22%, C[N+](C)(C)CC[N+]1(C)Cc2c(Cl)c(Cl)c(Cl)c(Cl)c2C1 -13.4%, Cc1ccc(-c2ccc(CCC(=O)O)n2-c2ccc(C)c(Cl)c2)cc1 -19.1%, O=C1CN(C(=O)c2c(F)cccc2Cl)C(c2ccc(F)cc2)c2cc(Br)ccc2N1 (stereo not given) -2.72%, Cn1c(=O)n(C)c2cc(N3CCOCC3)c(NS(=O)(=O)c3ccc(F)cc3)cc21 -11.3%, Cc1ccc2nc(/C(C#N)=C/c3ccc(-c4ccc(C(=O)OC(C)C)cc4)o3)[nH]c2c1 -6.11%, Cc1ccc2c(c1)c1c(c(=O)n(-c3ccccc3)c(=O)n1CC(=O)c1ccc(Cl)cc1)n2C -11.9%, CCOc1cc(C(=O)Nc2ccc(-c3nnc4n3CCCCC4)cc2)cc(OCC)c1OCC -9.14%, Fc1ccc(-c2nnn3c2nc(NCc2ccccc2)c2ccccc23)cc1 -4.1%, CCc1ccc(CNC(=O)C2CCN(C(=O)c3ccc(-n4c(C)cc5ccccc54)s3)CC2)cc1 -12.8%, COc1ccc(-n2c(=O)c3c4c(sc3n(CC(=O)C(C)(C)C)c2=O)CCCC4)c(OC)c1 7.42%, COC(=O)c1cccc(CN2C(=O)SC(Nc3ccccc3C)C2=O)c1 (stereo not given) -2.36%, CN(C(=O)CSc1nc2ccc(NC(=O)c3cccs3)cc2s1)c1ccccc1 1.23%, CCOc1ccc(NC(=O)CSc2nccn2C2CCCC2)cc1 -10.6%, O=C(Cn1nnc(-c2cccc(C(F)(F)F)c2)n1)NCc1ccc(F)cc1 -8.8%, CCc1ccc(CNC(=O)c2cc3cc4ccc(OC)cc4nc3o2)cc1 -19.6%, COc1ccc(C(=O)Nc2nc(-c3nnn(-c4cc(OC)ccc4OC)c3C)ns2)cc1 -1.8%, Cc1ccc(OCc2cc(=O)n3c(-c4ccccc4)csc3n2)cc1 8.13%, COc1cc(NC(=O)Nc2c[nH]c(=O)[nH]c2=O)cc(OC)c1OC -6.98%, CC(C)CCNC(=O)Cn1cc(S(=O)(=O)Cc2ccc(F)cc2)c2ccccc21 -7.44%, CCN(CC)S(=O)(=O)c1ccc2c(c1)c(=O)c(C(=O)N1CCN(c3ccccc3OC)CC1)cn2C -6.77%, COc1ccc(-c2cc(C(=O)NCc3ccc(C)cc3)c3cc(C(C)C)ccc3n2)cc1 -4.67%, Cc1ccc(NC(=O)C(=O)NCC(c2ccc3c(c2)OCO3)N2CCN(C)CC2)cc1C (stereo not given) -11.7%, Cc1c(C(=O)Oc2ccc(Br)cc2)sc2ncn(Cc3ccccc3F)c(=O)c12 -11.7%, CC(=O)N1c2ccc(S(=O)(=O)NCC3CCC(C(=O)Nc4cccc(C)c4)CC3)cc2CC1C (stereo not given) -3.65%, CCCC(=O)OC1=C(C(C)=O)N(Cc2ccccc2)S(=O)(=O)c2ccccc21 -13.1%, Cc1cc(S(=O)(=O)NCCc2csc(-c3cccc(F)c3)n2)ccc1F -21.7%, CCCCOc1ccc(S(=O)(=O)n2nc(C)c(S(=O)(=O)N3CCCCCC3)c2C)cc1 -8.74%, O=C1CCSC2(C(=O)N(Cc3ccccc3)c3ccccc32)N1c1ccccc1 (stereo not given) 4.75%, O=C(NCCCN1CCN(c2ccccc2F)CC1)c1sc2ncccc2c1-n1cccc1 -15.2%, COc1cccc2cc(-c3nc4ccc(C)cc4[nH]3)c(=O)oc12 -9.92%
